No constants are given. Whether binding was seen depends on the method and setting. For some of these results: In cells and extracts the contact can be indirect. Some binding calls cover weakened binding; strength is not graded here. For some of these results: Tags and fused reporters may be left off the sequences shown. Values belong to the molecule of their own block, whether it stands above or below them.
Assays:
GST-PRMT6 (human) = GST-PRMT6 (human) (UniProt Q96LA8); assay: pull-down; GST fusion protein as bait; 35S-methionine labelled in vitro translated HA-tagged partner; fluorography; input 20%; only the target purified
GST-HMGA1b = GST-HMGA1b (UniProt P17096); assay: as above
MBP-PRMT6 (human) = MBP-PRMT6 (human) (UniProt Q96LA8); assay: co-affinity purification; MBP-PRMT6 and HA-tagged partner co-transfected in HEK293T; native lysis; amylose resin; western blot with anti-HA
[1] = target: PRMT6 full length (aa 1-375), LexA fusion (human) (UniProt Q96LA8); assay: two-hybrid; library screen: LexA-PRMT6 (aa 1-375) as bait in S. cerevisiae EGY48, human fetal brain cDNA library in pJG4-5 as prey; Leu+ and beta-galactosidase filter assay; positives re-transformed and confirmed
[2] = target: PRMT6 87-375, LexA fusion (human) (UniProt Q96LA8); assay: two-hybrid; pairwise mapping: EGY48 with LexA-PRMT6 full length or deletion mutants and each partner in pJG4-5; assayed as in the screen
[3] = target: PRMT6 1-86, LexA fusion (human) (UniProt Q96LA8); assay: as above
[4] = target: PRMT6 185-375, LexA fusion (human) (UniProt Q96LA8); assay: as above
[5] = target: PRMT6 full length (aa 1-375), LexA fusion (human) (UniProt Q96LA8); assay: as above
[6] = target: PRMT6 1-184, LexA fusion (human) (UniProt Q96LA8); assay: as above

The chains behind the UniProt entries cited, without tags or fusion partners. Where a name states a change or a piece, a line headed by the entry shows the natural chain unless it says otherwise. A line that says so, or that is headed by a name, gives the form on record, which may keep a tag or linker.
GST-HMGA1b (P17096, form named): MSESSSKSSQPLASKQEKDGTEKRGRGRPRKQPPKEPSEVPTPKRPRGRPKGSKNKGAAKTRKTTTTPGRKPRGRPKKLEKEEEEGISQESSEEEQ
UniProt Q9UNS2: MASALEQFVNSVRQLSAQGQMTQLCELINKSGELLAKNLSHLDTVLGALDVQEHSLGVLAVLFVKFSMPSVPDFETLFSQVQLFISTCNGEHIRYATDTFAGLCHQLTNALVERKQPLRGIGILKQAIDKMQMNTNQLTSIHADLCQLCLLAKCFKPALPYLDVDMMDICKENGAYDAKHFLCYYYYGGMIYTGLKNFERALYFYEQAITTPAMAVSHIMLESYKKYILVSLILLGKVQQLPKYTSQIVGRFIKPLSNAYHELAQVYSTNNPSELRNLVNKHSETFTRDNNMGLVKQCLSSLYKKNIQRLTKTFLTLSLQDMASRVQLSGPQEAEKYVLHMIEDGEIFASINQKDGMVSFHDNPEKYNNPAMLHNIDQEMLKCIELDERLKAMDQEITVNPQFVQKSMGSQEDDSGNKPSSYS
UniProt P15531: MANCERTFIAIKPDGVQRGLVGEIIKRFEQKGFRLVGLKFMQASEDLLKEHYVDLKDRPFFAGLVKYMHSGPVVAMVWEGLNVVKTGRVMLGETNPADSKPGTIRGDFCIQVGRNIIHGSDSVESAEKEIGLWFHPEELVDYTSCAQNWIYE
UniProt Q15274: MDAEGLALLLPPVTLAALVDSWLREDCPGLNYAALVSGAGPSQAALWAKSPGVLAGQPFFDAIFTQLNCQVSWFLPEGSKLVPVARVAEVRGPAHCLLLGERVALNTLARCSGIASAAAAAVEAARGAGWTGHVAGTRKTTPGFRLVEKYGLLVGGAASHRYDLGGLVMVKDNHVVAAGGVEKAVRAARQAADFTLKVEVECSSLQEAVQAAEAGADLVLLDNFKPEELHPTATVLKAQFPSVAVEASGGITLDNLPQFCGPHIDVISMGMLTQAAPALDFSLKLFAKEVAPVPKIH
UniProt P49773: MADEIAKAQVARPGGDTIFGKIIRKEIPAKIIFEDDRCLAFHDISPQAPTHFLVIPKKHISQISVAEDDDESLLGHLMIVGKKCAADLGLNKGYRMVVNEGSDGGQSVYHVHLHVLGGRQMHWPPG
UniProt Q13885: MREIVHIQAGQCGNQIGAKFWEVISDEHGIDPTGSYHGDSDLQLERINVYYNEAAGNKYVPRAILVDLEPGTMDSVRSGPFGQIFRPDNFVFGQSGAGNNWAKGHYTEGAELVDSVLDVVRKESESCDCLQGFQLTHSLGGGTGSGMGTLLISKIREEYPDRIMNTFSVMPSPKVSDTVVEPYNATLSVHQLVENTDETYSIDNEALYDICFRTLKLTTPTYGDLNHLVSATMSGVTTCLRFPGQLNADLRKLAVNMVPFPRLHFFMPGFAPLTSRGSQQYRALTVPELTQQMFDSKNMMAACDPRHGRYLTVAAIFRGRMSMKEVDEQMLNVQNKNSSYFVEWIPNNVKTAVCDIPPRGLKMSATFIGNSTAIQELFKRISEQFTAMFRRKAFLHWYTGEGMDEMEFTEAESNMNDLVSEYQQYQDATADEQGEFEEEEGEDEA
UniProt P02792: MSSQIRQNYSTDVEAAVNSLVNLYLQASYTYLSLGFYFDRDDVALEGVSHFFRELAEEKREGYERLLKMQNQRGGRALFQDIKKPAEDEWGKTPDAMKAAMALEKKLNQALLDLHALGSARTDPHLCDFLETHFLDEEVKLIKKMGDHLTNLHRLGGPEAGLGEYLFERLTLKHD
UniProt P07954: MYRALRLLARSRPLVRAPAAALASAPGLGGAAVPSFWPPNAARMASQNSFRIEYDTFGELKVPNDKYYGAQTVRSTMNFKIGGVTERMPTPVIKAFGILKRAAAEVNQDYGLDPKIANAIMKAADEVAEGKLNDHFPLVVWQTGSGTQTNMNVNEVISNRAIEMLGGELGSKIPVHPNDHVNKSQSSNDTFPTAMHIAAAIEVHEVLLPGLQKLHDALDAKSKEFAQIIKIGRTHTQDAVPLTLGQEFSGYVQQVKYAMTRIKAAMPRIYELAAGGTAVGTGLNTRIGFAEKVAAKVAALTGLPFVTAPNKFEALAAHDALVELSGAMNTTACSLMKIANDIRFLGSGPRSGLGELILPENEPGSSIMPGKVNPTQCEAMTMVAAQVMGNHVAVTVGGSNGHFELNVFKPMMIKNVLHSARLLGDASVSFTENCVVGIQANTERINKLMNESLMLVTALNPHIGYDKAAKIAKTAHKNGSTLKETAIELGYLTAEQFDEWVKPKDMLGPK
UniProt P50750: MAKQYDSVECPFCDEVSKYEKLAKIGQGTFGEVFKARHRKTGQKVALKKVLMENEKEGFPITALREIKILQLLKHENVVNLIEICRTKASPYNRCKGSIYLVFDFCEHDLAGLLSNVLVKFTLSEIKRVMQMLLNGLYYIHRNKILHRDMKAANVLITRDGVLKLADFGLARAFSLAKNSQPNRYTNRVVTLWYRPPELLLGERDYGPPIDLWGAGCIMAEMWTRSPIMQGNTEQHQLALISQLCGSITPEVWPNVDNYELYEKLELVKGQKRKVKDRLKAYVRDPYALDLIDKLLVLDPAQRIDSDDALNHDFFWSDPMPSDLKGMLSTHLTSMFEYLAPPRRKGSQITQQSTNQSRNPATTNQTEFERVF
UniProt Q9Y483: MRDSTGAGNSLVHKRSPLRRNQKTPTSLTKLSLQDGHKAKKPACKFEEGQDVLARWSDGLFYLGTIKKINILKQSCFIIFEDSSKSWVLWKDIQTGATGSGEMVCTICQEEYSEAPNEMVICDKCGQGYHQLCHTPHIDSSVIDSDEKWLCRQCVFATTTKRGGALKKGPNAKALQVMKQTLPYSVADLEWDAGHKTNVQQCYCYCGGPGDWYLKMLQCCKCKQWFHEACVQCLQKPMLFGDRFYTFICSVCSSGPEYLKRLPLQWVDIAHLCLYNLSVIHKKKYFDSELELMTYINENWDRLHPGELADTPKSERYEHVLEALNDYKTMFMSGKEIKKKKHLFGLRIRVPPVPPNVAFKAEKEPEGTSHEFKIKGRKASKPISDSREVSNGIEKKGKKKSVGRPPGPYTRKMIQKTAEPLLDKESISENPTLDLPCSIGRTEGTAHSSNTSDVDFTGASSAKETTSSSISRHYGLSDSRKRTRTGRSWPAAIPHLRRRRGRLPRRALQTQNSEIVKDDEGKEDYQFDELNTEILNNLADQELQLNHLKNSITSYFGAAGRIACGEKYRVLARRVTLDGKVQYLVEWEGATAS

Molecule: COPS3, HA-tagged, in vitro translated (from UniProt Q9UNS2 1-423)
binding (GST-PRMT6 (human)): binds
binding (GST-HMGA1b): binds

Molecule: Nm23-H1, HA-tagged, in vitro translated (from UniProt P15531 1-152)
binding (GST-HMGA1b): no binding

Molecule: QPRT, HA-tagged, in vitro translated (from UniProt Q15274 1-297)
binding (GST-HMGA1b): no binding

Molecule: Hint1, HA-tagged, in vitro translated (from UniProt P49773 1-126)
binding (GST-PRMT6 (human)): binds
binding (GST-HMGA1b): no binding

Molecule: TUBB2A, HA-tagged, in vitro translated (from UniProt Q13885 1-445)
binding (GST-PRMT6 (human)): binds
binding (GST-HMGA1b): no binding

B1: UTP6 (protein, UniProt Q9NYH9 1-597)
chain: MAEIIQERIEDRLPELEQLERIGLFSHAEIKAIIKKASDLEYKIQRRTLFKEDFINYVQYEINLLELIQRRRTRIGYSFKKDEIENSIVHRVQGVFQRASAKWKDDVQLWLSYVAFCKKWATKTRLSKVFSAMLAIHSNKPALWIMAAKWEMEDRLSSESARQLFLRALRFHPECPKLYKEYFRMELMHAEKLRKEKEEFEKASMDVENPDYSEEILKGELAWIIYKNSVSIIKGAEFHVSLLSIAQLFDFAKDLQKEIYDDLQALHTDDPLTWDYVARRELEIESQTEEQPTTKQAKAVEVGRKEERCCAVYEEAVKTLPTEAMWKCYITFCLERFTKKSNSGFLRGKRLERTMTVFRKAHELKLLSECQYKQLSVSLLCYNFLREALEVAVAGTELFRDSGTMWQLKLQVLIESKSPDIAMLFEEAFVHLKPQVCLPLWISWAEWSEGAKSQEDTEAVFKKALLAVIGADSVTLKNKYLDWAYRSGGYKKARAVFKSLQESRPFSVDFFRKMIQFEKEQESCNMANIREYYERALREFGSADSDLWMDYMKEELNHPLGRPENCGQIYWRAMKMLQGESAEAFVAKHAMHQTGHL
binding [1]: binds
binding [2]: no binding
binding [3]: binds
binding [4]: no binding
binding [5]: binds
binding [6]: binds

B2: NOB1, HA-tagged, in HEK293T (protein, UniProt Q9ULX3 1-412)
chain: MAPVEHVVADAGAFLRHAALQDIGKNIYTIREVVTEIRDKATRRRLAVLPYELRFKEPLPEYVRLVTEFSKKTGDYPSLSATDIQVLALTYQLEAEFVGVSHLKQEPQKVKVSSSIQHPETPLHISGFHLPYKPKPPQETEKGHSACEPENLEFSSFMFWRNPLPNIDHELQELLIDRGEDVPSEEEEEEENGFEDRKDDSDDDGGGWITPSNIKQIQQELEQCDVPEDVRVGCLTTDFAMQNVLLQMGLHVLAVNGMLIREARSYILRCHGCFKTTSDMSRVFCSHCGNKTLKKVSVTVSDDGTLHMHFSRNPKVLNPRGLRYSLPTPKGGKYAINPHLTEDQRFPQLRLSQKARQKTNVFAPDYIAGVSPFVENDISSRSATLQVRDSTLGAGRRRLNPNASRKKFVKKR
binding (MBP-PRMT6 (human)): binds

More lines, now with the values ahead:

binding (GST-PRMT6 (human)): binds
binding (GST-HMGA1b): binds
Molecule: HSJ-2, HA-tagged, in vitro translated (from UniProt P31689 1-397)

binding (GST-PRMT6 (human)): binds
binding (GST-HMGA1b): no binding
Molecule: FtL, HA-tagged, in vitro translated (from UniProt P02792 1-175)

binding (GST-PRMT6 (human)): binds
binding (GST-HMGA1b): no binding
Molecule: FH, HA-tagged, in vitro translated (from UniProt P07954 1-510)

binding (GST-PRMT6 (human)): binds
binding (GST-HMGA1b): no binding
Molecule: CDK9, HA-tagged, in vitro translated (from UniProt P50750 1-372)

binding (MBP-PRMT6 (human)): binds
Molecule: TUBB2A, HA-tagged, in HEK293T (from UniProt Q13885 1-445)

binding (MBP-PRMT6 (human)): binds
Molecule: MTF2, HA-tagged, in HEK293T (from UniProt Q9Y483 1-593)

binding (MBP-PRMT6 (human)): binds
Molecule: HSJ-2, HA-tagged, in HEK293T (from UniProt P31689 1-397)

binding (MBP-PRMT6 (human)): binds
B3: CASP6, HA-tagged, in HEK293T (protein, UniProt P55212 1-293)
chain: MSSASGLRRGHPAGGEENMTETDAFYKREMFDPAEKYKMDHRRRGIALIFNHERFFWHLTLPERRGTCADRDNLTRRFSDLGFEVKCFNDLKAEELLLKIHEVSTVSHADADCFVCVFLSHGEGNHIYAYDAKIEIQTLTGLFKGDKCHSLVGKPKIFIIQACRGNQHDVPVIPLDVVDNQTEKLDTNITEVDAASVYTLPAGADFLMCYSVAEGYYSHRETVNGSWYIQDLCEMLGKYGSSLEFTELLTLVNRKVSQRRVDFCKDPSAIGKKQVPCFASMLTKKLHFFPKSN

binding (MBP-PRMT6 (human)): binds
B4: PTS, HA-tagged, in HEK293T (protein, UniProt Q03393 1-145)
chain: MSTEGGGRRCQAQVSRRISFSASHRLYSKFLSDEENLKLFGKCNNPNGHGHNYKVVVTVHGEIDPATGMVMNLADLKKYMEEAIMQPLDHKNLDMDVPYFADVVSTTENVAVYIWDNLQKVLPVGVLYKVKVYETDNNIVVYKGE

Source: publication PMC3542376
